{"source": "PubChem BioAssay AID504832", "about": "(National Center for Advancing Translational Sciences (NCATS), 2011)", "note": "Screen size: about 310,000 compounds; about 18,000 (5.8%) were called active. Inconclusive results, whose numbers are uncertain, are shown with a selection of clear calls. Calls come from the whole dose curve; as a rule, active = well fitted inhibition curve with a large enough effect; inconclusive = small, poorly fitted or top-dose-only effect, or another doubt; inactive = no such curve, though single readings can be large or run the other way. No potency is given beside an inconclusive call; the fits are too rough. % is set by controls: 0 for no effect and ±100 for the full control effect; potency is the fitted concentration of half-maximal effect; tags give direction and shape of the fitted curve.", "data": [{"experiment": "Primary qHTS for delayed death inhibitors of the malarial parasite plastid, 48 hour incubation", "conditions": "P. falciparum luciferase growth in erythrocytes; series mostly up to 28.7 µM; activity change, negative = inhibition: at the top concentration", "how_it_was_run": "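Here the parasites carry a stable luciferase gene and grow inside erythrocytes in Albumax-based RPMI medium with compound for one erythrocytic cycle. Activity is scored as loss of luminescent signal.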", "values": [{"smiles": "CCn1ncc(C(=O)Nc2cc(C)on2)c1C", "activity change, negative = inhibition": "inactive: 95.3%"}, {"smiles": "CC1CCN(S(=O)(=O)c2ccc(NC(=O)c3ccccc3F)cc2)CC1", "Potency": "inconclusive [inhibitor, single point]"}, {"smiles": "CCc1ccc2oc(=O)cc(CN3CCN(CCO)CC3)c2c1", "activity change, negative = inhibition": "inactive: -0.614%"}, {"smiles": "CC(=O)Nc1cccc(OCC(=O)/C=C2\\N(C)c3ccccc3C2(C)C)c1", "Potency": "inconclusive [inhibitor, single point]"}, {"smiles": "O=C(CC(Nc1cccc(Cl)c1Cl)C(=O)OCC(=O)c1cccs1)c1ccccc1", "note": "(stereo not drawn)", "activity change, negative = inhibition": "inactive: 16.6%"}, {"smiles": "CCN(CC)C(=O)c1sc2nc(N3CCOCC3)c3c(c2c1N)CCCC3", "Potency": "inconclusive [inhibitor, single point]"}, {"smiles": "O=C(COc1ccc2ccccc2c1)NN1C(=O)c2ccccc2C1=O", "activity change, negative = inhibition": "inactive: -1.35%"}, {"smiles": "Cc1ccc(C)c(N(Cc2cc3ccc(C)cc3[nH]c2=O)C(=O)c2ccco2)c1", "Potency": "inconclusive [inhibitor, partial curve, poor fit]"}, {"smiles": "O=C(c1ccccc1)N1CCN(c2ncnc3sc4c(c23)CCC4)CC1", "Potency": "inconclusive [inhibitor, single point]"}, {"smiles": "CCc1ccccc1NC(=O)CSC1=C(C#N)C(c2ccc3c(c2)OCO3)C2=C(CCCC2=O)N1", "note": "(stereo not drawn)", "Potency": "inconclusive [inhibitor, single point]"}, {"smiles": "C=CCn1c(SCC(=O)N2CCc3ccccc3C2)nc2ccccc2c1=O", "Potency": "inconclusive [inhibitor, partial curve, poor fit]"}, {"smiles": "CC1(c2ccc([N+](=O)[O-])cc2)NC(=O)N(CC(=O)Nc2ccc(N3CCCCC3)cc2)C1=O", "note": "(stereo not drawn)", "Potency": "inconclusive [inhibitor, single point]"}, {"smiles": "c1ccc(-c2nc(-c3ccccn3)nc(-c3ccccn3)n2)nc1", "Potency": "inconclusive [inhibitor, single point]"}, {"smiles": "CC1Cc2cc(S(=O)(=O)N3CCC(C(=O)N4CCN(c5ccccc5F)CC4)CC3)ccc2N1C(=O)C1CC1", "note": "(stereo not drawn)", "Potency": "inconclusive [inhibitor, partial curve]"}, {"smiles": "CC1CCCN(c2nc(NCc3ccco3)nc(N)c2[N+](=O)[O-])C1", "note": "(stereo not drawn)", "activity change, negative = inhibition": "inactive: -22.1%"}, {"smiles": "COc1ccc(C(=O)Nc2ccc(N3CCN(C(=O)C(C)C)CC3)cc2)cc1[N+](=O)[O-]", "activity change, negative = inhibition": "inactive: 77.6%"}, {"smiles": "O=C(NCCCN1CCCC1)c1cc2c(Cl)nc3ccccc3c2s1", "Potency": "inconclusive [inhibitor, partial curve, poor fit]"}, {"smiles": "Cc1cc(C)c(OCCCCCn2ccnc2)c(C)c1", "Potency": "active: 13.1 µM"}, {"smiles": "O=C1CC(c2ccccc2F)C2=C(COC2=O)N1", "note": "(stereo not drawn)", "Potency": "inconclusive [inhibitor, single point]"}, {"smiles": "COc1ccc(-n2c(C)cc(/C=N/Nc3nnc(C)n3N)c2C)cc1", "Potency": "inconclusive [inhibitor, single point]"}, {"smiles": "O=C(NCc1ccco1)C(=O)NCC1OCCCN1S(=O)(=O)c1ccc(Cl)cc1", "note": "(stereo not drawn)", "Potency": "inconclusive [inhibitor, single point]"}, {"smiles": "Cc1ccc(N(CC(=O)N/N=C/c2ccc(OC3CSC3)cc2)S(=O)(=O)c2ccccc2)c(C)c1", "Potency": "inconclusive [inhibitor, single point]"}, {"smiles": "COc1ccc(S(=O)(=O)N2CCCCC2)cc1NC(=O)c1cc([N+](=O)[O-])ccc1N1CCOCC1", "Potency": "active: 9.28 µM"}, {"smiles": "CC/C(=N\\NC(=O)c1ccc(N(C)C)cc1)c1ccccc1", "activity change, negative = inhibition": "inactive: 12.1%"}, {"smiles": "CSc1nc(C)c(CCOC(=O)c2ccccc2)c(=O)[nH]1", "Potency": "inconclusive [inhibitor, partial curve, poor fit]"}, {"smiles": "COc1cccc(C(=O)Nc2cc(C)ccc2NC(=O)COc2ccccc2)c1", "Potency": "inconclusive [inhibitor, single point]"}, {"smiles": "O=C(Nc1ccc(Br)cn1)c1ccc2ccccc2c1", "activity change, negative = inhibition": "inactive: 191%"}, {"smiles": "Cc1cc(C)nc(-n2nc(C)cc2Nc2ccccc2)n1", "Potency": "active: 8.28 µM"}, {"smiles": "O=C(NNC(=O)c1ccccc1Cl)c1ccncc1", "activity change, negative = inhibition": "inactive: -1.64%"}, {"smiles": "Fc1ccc(-c2csc3[n+]2CCS3)cc1", "Potency": "active: 10.4 µM"}, {"smiles": "O=C(c1ccc2c(c1)OCO2)C1CCCN(Cc2ccc(OC(F)F)cc2)C1", "note": "(stereo not drawn)", "activity change, negative = inhibition": "inactive: 24.7%"}, {"smiles": "COc1ccc(-c2nnc3n2N=C(C)CS3)cc1", "activity change, negative = inhibition": "inactive: 53.2%"}, {"smiles": "CC(=O)N1CCN(CC(=O)Nc2ccc3c(c2)CCC3)CC1", "activity change, negative = inhibition": "inactive: 11.2%"}, {"smiles": "O=C(COC(=O)c1ccc(S(=O)(=O)NCc2ccco2)cc1)NCCC1=CCCCC1", "activity change, negative = inhibition": "inactive: -4.4%"}, {"smiles": "Clc1ncc(CN2CCN(c3ccccc3)CC2)s1", "activity change, negative = inhibition": "inactive: 11.7%"}, {"smiles": "CC(C)(C)N1C(=O)c2ccc(C(=O)Nc3nccs3)cc2C1=O", "activity change, negative = inhibition": "inactive: -0.126%"}, {"smiles": "CCc1ccccc1NC(=O)CN1CCN(C(=O)CNC(=O)Cc2cccc3ccccc23)CC1", "Potency": "inconclusive [inhibitor, partial curve]"}, {"smiles": "Cn1ccnc1C(=O)C1CCCN(Cc2cn[nH]c2-c2ccc(-c3ccccc3)cc2)C1", "note": "(stereo not drawn)", "Potency": "inconclusive [inhibitor, single point]"}, {"smiles": "CCOc1ccc(C(=O)NCC(c2cccs2)N(C)C)cc1", "note": "(stereo not drawn)", "activity change, negative = inhibition": "inactive: 15.7%"}, {"smiles": "O=C(Nc1ccccc1N1CCOCC1)c1ccc(OCc2cscn2)cc1", "activity change, negative = inhibition": "inactive: -12.9%"}, {"smiles": "COc1ccc(NS(=O)(=O)c2cc(NC(=O)C3CCCO3)ccc2N2CCCCC2)cc1", "note": "(stereo not drawn)", "Potency": "active: 5.22 µM"}, {"smiles": "Brc1cc2c(cc1/C=N/Nc1nc3ccccc3s1)OCO2", "activity change, negative = inhibition": "inactive: 97.9%"}, {"smiles": "CN1C(=O)C(C)(C)c2cc(S(=O)(=O)N3CCCC(C(=O)NCc4ccc(Cl)cc4)C3)ccc21", "note": "(stereo not drawn)", "Potency": "inconclusive [inhibitor, partial curve, poor fit]"}, {"smiles": "COc1cccc(CN2CC(C(=O)NCc3cccc(Cl)c3)CCC2=O)c1", "note": "(stereo not drawn)", "Potency": "inconclusive [inhibitor, partial curve, poor fit]"}, {"smiles": "CSCCC(NC(=O)c1ccccc1)C(=O)N1CC=C(c2ccccc2)CC1", "note": "(stereo not drawn)", "Potency": "active: 9.28 µM"}, {"smiles": "Cc1ccc(C(C)C)c(OCCNC(=O)c2cncc(Br)c2)c1", "Potency": "inconclusive [inhibitor, single point]"}, {"smiles": "CC(C)NC(=O)c1ccc2c(=O)n(C3CCCC3)c(=S)[nH]c2c1", "activity change, negative = inhibition": "inactive: 26.2%"}, {"smiles": "Cc1ccc(S(=O)(=O)N(CC(=O)NCc2ccncc2)C2CCCCC2)cc1", "Potency": "inconclusive [inhibitor, partial curve, poor fit]"}, {"smiles": "CCN1C(=NCC2CC2)N[C@@H](c2cccc(C(F)(F)F)c2)C(C(=O)OC)=C1C", "Potency": "inconclusive [inhibitor, partial curve, poor fit]"}, {"smiles": "CCC1CN(S(=O)(=O)c2cc(-c3cc(C)no3)ccc2OC)c2cc(C)ccc2O1", "note": "(stereo not drawn)", "Potency": "active: 10.4 µM"}, {"smiles": "CCC(Oc1ccccc1C)C(=O)Nc1ccc(S(=O)(=O)Nc2cc(C)on2)cc1", "note": "(stereo not drawn)", "activity change, negative = inhibition": "inactive: 2.5%"}, {"smiles": "CC(=O)c1c(C)n(CC(=O)NCc2ccc3c(c2)OCO3)c2ccccc12", "activity change, negative = inhibition": "inactive: 1.1%"}, {"smiles": "COc1ccc(N(CCCN2C(=O)c3cccc4cccc(c34)C2=O)C(=O)c2cccnc2)cc1", "Potency": "inconclusive [inhibitor, partial curve, poor fit]"}, {"smiles": "O=C(Nc1nnc(SCC(=O)N2CCCc3ccccc32)s1)c1cccc2ccccc12", "activity change, negative = inhibition": "inactive: 21.4%"}, {"smiles": "Cc1cc2cc(C)c(NCCNC(=O)c3cccc(F)c3)nc2cc1C", "Potency": "inconclusive [inhibitor, single point]"}, {"smiles": "Cc1ccc(S(=O)(=O)N2CCN(C(=O)COC(=O)c3ccc([N+](=O)[O-])o3)CC2)c(C)c1", "Potency": "inconclusive [inhibitor, single point]"}, {"smiles": "COc1ccccc1Cc1noc(-c2cc(Cl)ccc2OC)n1", "Potency": "inconclusive [inhibitor, single point]"}, {"smiles": "Cn1c(CNC(=O)c2ccco2)nnc1SCC(=O)c1ccccc1", "activity change, negative = inhibition": "inactive: -12.4%"}, {"smiles": "CC1(C(=O)NC(=S)NNC(=O)c2ccncc2)CCCCC1", "Potency": "inconclusive [inhibitor, single point]"}, {"smiles": "CCc1nnc(NS(=O)(=O)c2ccc(NC(=O)COc3ccc4ccccc4c3)cc2)s1", "Potency": "inconclusive [inhibitor, single point]"}, {"smiles": "COc1ccc(NC(=O)NCc2ccccn2)c(OC)c1", "activity change, negative = inhibition": "inactive: -3.83%"}, {"smiles": "CCOC(=O)C1=C(C)NC2=C(C(=O)CCC2)C1c1cccnc1", "note": "(stereo not drawn)", "activity change, negative = inhibition": "inactive: 1.07%"}, {"smiles": "O=C(CN1CCCCCC1)N1c2ccccc2Sc2ccccc21", "Potency": "inconclusive [inhibitor, partial curve, poor fit]"}, {"smiles": "O=C(C1CC1)N1CCN(c2nc3ccccc3s2)CC1", "activity change, negative = inhibition": "inactive: 220%"}, {"smiles": "O=C(NCc1ccco1)c1noc2c1CCCC2", "activity change, negative = inhibition": "inactive: 58.6%"}, {"smiles": "C=CCNCCCOc1ccc(C(C)(C)c2ccccc2)cc1", "Potency": "inconclusive [inhibitor, single point]"}, {"smiles": "CCOc1ccc(N(CC(=O)NC(C)(C)C)C(=O)c2ccco2)cc1", "activity change, negative = inhibition": "inactive: -14.4%"}, {"smiles": "OCCC1CN(Cc2nc(-c3ccc(F)cc3)cs2)CCN1CCc1ccccc1", "note": "(stereo not drawn)", "Potency": "inconclusive [inhibitor, partial curve, poor fit]"}, {"smiles": "C=C(C)COc1ccc2c(C)c(CC(=O)N3C[C@H]4C[C@@H](C3)c3cccc(=O)n3C4)c(=O)oc2c1", "Potency": "inconclusive [inhibitor, single point]"}, {"smiles": "CC1CCN(S(=O)(=O)c2ccc3c(c2)N(CC(=O)NCCCN2CCCCC2C)C(=O)CS3)CC1", "note": "(stereo not drawn)", "Potency": "inconclusive [inhibitor, single point]"}, {"smiles": "CC(C)N=C(NC#N)SCc1ccccc1F", "Potency": "inconclusive [inhibitor, partial curve, poor fit]"}, {"smiles": "CCCN(Cc1nnc(-c2ccccc2Cl)o1)C(=O)c1ccc(C)c(S(=O)(=O)N2CCOCC2)c1", "Potency": "inconclusive [inhibitor, single point]"}, {"smiles": "COC(=O)c1c(C)oc(C)c1S(=O)(=O)N1CCCCC1", "activity change, negative = inhibition": "inactive: 0.0689%"}]}]}
